# Data: PubChem BioAssay AID485344 (National Center for Advancing Translational Sciences (NCATS), 2010)
# The whole screen tested about 340,000 compounds, of which about 6,900 (2%) were called active. Cut-off read from the data, not from the text of the source: active = inhibition above about 30%; inactive = below that, where a call was filed. Only a part is listed here, and it is no random draw. Entries without a call were filed so in the source.
# Molecular target: D(2) dopamine receptor (Homo sapiens) (UniProt P14416)
# UniProt P14416, sequence (P14416 whole entry, looked up): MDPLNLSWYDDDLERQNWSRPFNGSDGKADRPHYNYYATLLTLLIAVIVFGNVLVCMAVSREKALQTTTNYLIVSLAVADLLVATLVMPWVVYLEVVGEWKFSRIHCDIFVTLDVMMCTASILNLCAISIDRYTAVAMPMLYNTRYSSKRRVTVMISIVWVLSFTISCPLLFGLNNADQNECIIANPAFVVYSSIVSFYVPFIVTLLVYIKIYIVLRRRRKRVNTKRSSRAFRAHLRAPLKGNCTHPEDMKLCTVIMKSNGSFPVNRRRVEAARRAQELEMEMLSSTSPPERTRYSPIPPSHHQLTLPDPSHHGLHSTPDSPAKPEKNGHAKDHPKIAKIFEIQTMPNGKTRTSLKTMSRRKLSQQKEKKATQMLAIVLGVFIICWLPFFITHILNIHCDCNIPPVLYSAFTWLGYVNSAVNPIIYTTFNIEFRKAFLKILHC
# Test: HTS Assay for Allosteric Antagonists of the Human D2 Dopamine Receptor: Primary Screen for Antagonists; note: 0% is about no effect
# Details: HEK293 TREx D2 cells, calcium flux, dopamine EC80; at 10 µM; stronger effect = higher value
# Description: NIH Chemical Genomics Center [NCGC] NIH Molecular Libraries Probe Centers Network [MLPCN] MLPCN Grant: NS064831-01 Assay Submitter (PI): David Sibley Dopamine receptors (DARs) are involved in the etiology and/or therapy of a number of neuropsychiatric and endocrine disorders. For instance, all receptor-based antiparkinsonian drugs work via stimulating the D2 DAR subtype whereas all FDA-approved antipsychotic agents are antagonists of this receptor. […] There are three different types of allosteric modulators that we are seeking, two of which will stimulate or augment receptor signaling, allosteric agonists and potentiators, while the third, allosteric antagonists, will attenuate receptor signaling. The present primary screening assay measures compound antagonism after an EC80 addition of dopamine by tracking calcium flux in a […], inducible Hek293 Trex D2 cell line.
# Freshly passaged cells are plated in 1536 well black, clear bottom plates at a density of 4000 cells/well in 3 ul of complete media containing 1x tetracycline inducer. After an overnight incubation at 30 C in 5% CO2, cells are loaded with 2 ul of the no wash Calcium Assay Kit (ABD Bioquest) and incubated at room temperature for 30 to 90 minutes. Agonist read: A 10 cycle (1 second/cycle) baseline measurement is taken and then the FDSS online 1536 pintool delivers 23 nl of compound library (as well as dopamine controls) to the plate. The plate is measured for kinetically at 1 cycle/sec for 180 seconds. Following the 180 second read, 1 ul of an EC80 (negative modulation assay) is delivered by an onboard pipette head. Measurements are taken kinetically for an additional 180 seconds.
row,SMILES,inhibition
1,CCN(CC)C(=O)c1sc2c(c1C)c(=O)n(CCc1ccccc1)c(=O)n2Cc1cc(C)ccc1C,4.7%
2,COc1ccccc1N1CCN(S(=O)(=O)/C=C/c2ccccc2)CC1,active: 53.6%
3,O=C(CSc1nnc(-c2cccs2)o1)Oc1ccccc1Cl,12.8%
4,CC(C)(C)C(=O)NCC(c1ccc2c(c1)OCO2)N1CCOCC1 (configuration not stated),-19.1%
5,COc1cccc(N2CCN(C(=O)c3cc4c(s3)-c3ccccc3OC4)CC2)c1,0.128%
6,Cc1cccc(C)c1NC(=O)C(NS(=O)(=O)c1cccs1)c1ccccc1 (configuration not stated),-0.35%
7,O=C(NCCc1ccc(Cl)cc1)c1ccc(CS(=O)(=O)c2ccc(Cl)cc2)o1,-11.7%
8,O=C(Cn1ccn(-c2ccc(F)cc2)c(=O)c1=O)Nc1ccc(F)cc1,8.21%
9,COc1cccc(N2CCN(C(=O)C3CCN(S(=O)(=O)c4c(C)noc4/C=C/c4ccccc4F)CC3)CC2)c1,4.47%
10,Cc1c(C(=O)Nc2ccccc2)sc2nc(-c3cc4cc(Cl)ccc4oc3=O)[nH]c(=O)c12,6.7%
11,CCCS(=O)(=O)c1c(S(=O)(=O)CCC)c2cc(C(C)(C)C)ccn2c1C(=O)c1ccccc1,-2.03%
12,Cc1ccc(C(C(=O)NC2CCCCC2)N(Cc2ccco2)C(=O)Cc2c[nH]c3ccccc23)o1 (configuration not stated),active: 36.1%
13,Cc1ccccc1C(=O)Nc1ccc2nc(N3CCCCC3)cc(C)c2c1,3.32%
14,COC(=O)c1ccc(NC(=O)CC2C(=O)N(c3ccccc3)C(=O)N2Cc2ccc(F)cc2)cc1 (configuration not stated),-1.58%
15,COc1ccc(NC(=O)Cn2cc(S(=O)(=O)c3ccccc3)c(=O)c3cc4c(cc32)OCO4)cc1,1.19%
16,CCN1CCc2c(sc(-n3cccc3)c2C(C)NC(=O)Nc2ccc(Br)cc2)C1 (configuration not stated),17.1%
17,Cc1ccc(Cl)cc1NC(=S)N(CCCN1CCN(C)CC1)Cc1ccco1,active: 71%
18,CCCC(=O)OCc1cnc(C)c2oc(=O)c(C(=O)Nc3cccc(C(F)(F)F)c3)cc12,-12.5%
19,COc1ccc(N(Cc2cccs2)C(=O)c2ccc(OC)c(Cl)c2)cc1,8.67%
20,Cc1cccc(N2CCN(C(=O)C3CCN(S(=O)(=O)c4c(C)noc4C)CC3)CC2C)c1 (configuration not stated),-7.24%
21,CCOC(=O)c1[nH]c(C)c(CCC(=O)NCc2ccc(CC)cc2)c1C,-0.319%
22,CCN(CC)CCNC(=O)c1cc2c(=O)n(C)c3cc(Cl)ccc3c2s1,13.3%
23,Cc1ccc(-c2ccc(=O)n(CCC(=O)NCCc3ccccc3)n2)cc1,-10.9%
24,COc1cccc(CN2c3ccccc3-c3nc(SCC(=O)Nc4ccccc4Cl)ncc3S2(=O)=O)c1,18.5%

row,SMILES,inhibition
1,CC(C)COc1ccc(C(=O)N2CCN(CCc3ccncc3)CC2)cc1,-11.2%
2,O=C1CSC2(C(=O)N(Cc3cccc(F)c3)c3ccccc32)N1c1cccc(C(F)(F)F)c1 (configuration not stated),-0.0067%
3,COc1ccc(NC(=O)c2ccc3nc(C(C)C)oc3c2)cc1OC,9.63%
4,CCC(Oc1ccc(F)cc1)C(=O)Nc1c(C(=O)c2ccc(C)cc2)oc2ccccc12 (configuration not stated),-9.45%
5,CCn1cc(C(=O)N2CCN(c3ccccc3)CC2)c(=O)c2cc(S(=O)(=O)N3CCOCC3)ccc21,-7.16%
6,CCn1c2c(c(=O)n3ncc(C(=O)N4CCN(c5ccc(Cl)cc5)CC4)c13)CN(Cc1ccc(OC)cc1)CC2,6.95%
7,O=C(Nc1cccc(Cl)c1)c1nc[nH]c1C(=O)N1CCc2ccccc2C1,active: 56.4%
8,COc1ccc(-c2nc3scc(CCNS(=O)(=O)c4ccc(F)cc4C)n3n2)cc1,-6.23%
9,COC(=O)c1cc2oc3ccccc3c2n1Cc1ccc(Cl)cc1,-5.32%
10,CN1C(=O)c2ccccc2Sc2ccc(NC(=O)c3ccc(C(F)(F)F)cc3)cc21,10.5%
11,N#Cc1ccccc1NS(=O)(=O)c1ccc(N2CCCCS2(=O)=O)cc1,-4.67%
12,COc1ccc(CNC(=O)CCc2c(C)c3cc4c(C)coc4c(C)c3oc2=O)cc1OC,-9.68%
13,Cc1ccc(N2CC(NC(=O)c3cc4ccccc4o3)CC2=O)cc1 (configuration not stated),-7.32%
14,COc1ccc(NC(=O)Cn2c(=O)n(Cc3ccccc3)c(=O)c3sc4ccccc4c32)cc1,3.08%
15,CCOc1ccc(C(=O)Nc2ccc3oc(-c4ccc5ccccc5c4)nc3c2)cc1,-9.6%
16,CCCCNC(=O)c1cc2n(n1)CCCN(Cc1ccc(C)cc1)C2=O,-21.2%
17,CCc1ccc(Cn2c(CNS(=O)(=O)c3ccc(C)c(C)c3)nc3cccnc32)cc1,6.05%
18,COc1ccc(N2C(=O)CSC23C(=O)N(CC(=O)NCCc2ccccc2)c2ccccc23)cc1 (configuration not stated),-9.18%
19,O=C(CSc1nc(=O)[nH]c2c1CCCC2)NCc1ccccc1,6.2%
20,COc1ccccc1C(=O)Nc1ccc(C(=O)OCc2cc(=O)n3nc(C4CC4)sc3n2)cc1,0.611%
21,Cc1nn2c(C)c(C(=O)NC(C)(C)C)cnc2c1-c1ccc(F)cc1,-4.42%
22,Cc1c(C)c2cc3c(c(C)c2oc1=O)OCN(CCc1ccc(F)cc1)C3,0.582%
23,OC(COc1ccc(CNCc2cccnc2)cc1)CN1CCc2ccccc2C1 (configuration not stated),active: 48.8%
